Measured values as given in the supplement of paper PMC10369915.
This is one part of the list. No stated cut-off is given here; in the data, active = 3.2 or more and inactive = the rest. Only a few entries rise above the background.

Key:
Experiment in all cases: enrichment score (SH2-bound / input frequency) (ratio); bacterial display of known human phosphotyrosine sites (pTyr-Var adds point mutants) read by sequencing; higher = stronger binding; tyrosines were phosphorylated by kinases first
Conditions in all cases: peptide library: pTyr-Var
SHP2 C-SH2 domain E139D = target: SHP2 C-SH2 domain E139D
[1] = target: SHP2 C-SH2 domain wild-type
SHP2 N-SH2 domain L43F = target: SHP2 N-SH2 domain L43F
SHP2 N-SH2 domain T42A = target: SHP2 N-SH2 domain T42A
SHP2 N-SH2 domain T52S = target: SHP2 N-SH2 domain T52S
[2] = target: SHP2 N-SH2 domain wild-type

Measured: enrichment score
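Further: displayed peptides selected on beads carrying the immobilized SH2 domain, with library peptides lacking any tyrosine serving as negative controls.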

B1: MYOF_Y1705_YF (peptide)
chain: FGGRDYSLDEF
inactive: SHP2 C-SH2 domain E139D 0.741 | [1] 0.719 | SHP2 N-SH2 domain L43F 0.836 | SHP2 N-SH2 domain T42A 0.761 | SHP2 N-SH2 domain T52S 0.831 | [2] 0.903

B2: MYOM2_Y1024_L1022F (peptide)
chain: KSEFAYEIFDK
inactive: SHP2 C-SH2 domain E139D 0.931 | [1] 0.705 | SHP2 N-SH2 domain L43F 0.782 | SHP2 N-SH2 domain T42A 0.693 | SHP2 N-SH2 domain T52S 0.804 | [2] 0.757

B3: MYOM2_Y317_V321L (peptide)
chain: PRAEWYRDDLL
inactive: SHP2 C-SH2 domain E139D 0.807 | [1] 0.868 | SHP2 N-SH2 domain L43F 0.693 | SHP2 N-SH2 domain T42A 0.646 | SHP2 N-SH2 domain T52S 0.726 | [2] 0.897

B4: MYOM2_Y871 (peptide)
chain: TTANRYLKVSD
inactive: SHP2 C-SH2 domain E139D 0.519 | [1] 0.381 | SHP2 N-SH2 domain L43F 0.444 | SHP2 N-SH2 domain T42A 0.371 | SHP2 N-SH2 domain T52S 0.308 | [2] 0.503

B5: MYOM2_Y871_N869S (peptide)
chain: TTASRYLKVSD
inactive: SHP2 C-SH2 domain E139D 0.521 | [1] 0.318 | SHP2 N-SH2 domain L43F 0.547 | SHP2 N-SH2 domain T42A 0.54 | SHP2 N-SH2 domain T52S 0.654 | [2] 0.617

B6: MYOM3_Y343 (peptide)
chain: EDEGLYMVRVP
inactive: SHP2 C-SH2 domain E139D 0.729 | [1] 0.714 | SHP2 N-SH2 domain L43F 0.743 | SHP2 N-SH2 domain T42A 0.627 | SHP2 N-SH2 domain T52S 0.695 | [2] 0.929

B7: MYOM3_Y343_M344T (peptide)
chain: EDEGLYTVRVP
inactive: SHP2 C-SH2 domain E139D 0.855 | [1] 0.664 | SHP2 N-SH2 domain L43F 0.748 | SHP2 N-SH2 domain T42A 0.71 | SHP2 N-SH2 domain T52S 0.564 | [2] 0.582

B8: NAMPT_Y175_L176S (peptide)
chain: KILAKYSLETS
inactive: SHP2 C-SH2 domain E139D 1.4 | [1] 1.16 | SHP2 N-SH2 domain L43F 1.19 | SHP2 N-SH2 domain T42A 1.03 | SHP2 N-SH2 domain T52S 1.24 | [2] 1.03

B9: NANS_Y188 (peptide)
chain: QCTSAYPLQPE
inactive: SHP2 C-SH2 domain E139D 0.704 | [1] 0.554 | SHP2 N-SH2 domain L43F 0.502 | SHP2 N-SH2 domain T42A 0.646 | SHP2 N-SH2 domain T52S 0.638 | [2] 0.735

B10: NARS2_Y138 (peptide)
chain: RHPLEYLRQYP
inactive: SHP2 C-SH2 domain E139D 1.51 | [1] 1.85 | SHP2 N-SH2 domain L43F 1.43 | SHP2 N-SH2 domain T42A 1.24 | SHP2 N-SH2 domain T52S 1.18 | [2] 1.53

B11: NARS2_Y138_E137D (peptide)
chain: RHPLDYLRQYP
inactive: SHP2 C-SH2 domain E139D 1.57 | [1] 1.52 | SHP2 N-SH2 domain L43F 1.62 | SHP2 N-SH2 domain T42A 1.49 | SHP2 N-SH2 domain T52S 1.63 | [2] 1.29

B12: NARS2_Y138_E137D_YF (peptide)
chain: RHPLDYLRQFP
inactive: SHP2 C-SH2 domain E139D 1.12 | [1] 0.831 | SHP2 N-SH2 domain L43F 0.879 | SHP2 N-SH2 domain T42A 0.871 | SHP2 N-SH2 domain T52S 0.953 | [2] 0.923

B13: NAT1_Y208_T207I (peptide)
chain: ESMNIYLQTSP
inactive: SHP2 C-SH2 domain E139D 0.779 | [1] 0.942 | SHP2 N-SH2 domain L43F 0.726 | SHP2 N-SH2 domain T42A 0.821 | SHP2 N-SH2 domain T52S 0.762 | [2] 0.872

B14: NAXD_Y85 (peptide)
chain: GGCQEYTGAPY
inactive: SHP2 C-SH2 domain E139D 0.847 | [1] 0.767 | SHP2 N-SH2 domain L43F 0.777 | SHP2 N-SH2 domain T42A 0.738 | SHP2 N-SH2 domain T52S 0.527 | [2] 0.923

B15: NAXD_Y85_G81S (peptide)
chain: GSCQEYTGAPY
inactive: SHP2 C-SH2 domain E139D 0.576 | [1] 0.771 | SHP2 N-SH2 domain L43F 0.667 | SHP2 N-SH2 domain T42A 0.611 | SHP2 N-SH2 domain T52S 0.69 | [2] 0.816

B16: NAXD_Y85_G81S_YF (peptide)
chain: GSCQEYTGAPF
inactive: SHP2 C-SH2 domain E139D 0.618 | [1] 0.844 | SHP2 N-SH2 domain L43F 0.483 | SHP2 N-SH2 domain T42A 0.584 | SHP2 N-SH2 domain T52S 0.594 | [2] 0.622

B17: NBEAL2_Y1835_E1833K (peptide)
chain: SSAKTYSRMRL
inactive: SHP2 C-SH2 domain E139D 0.563 | [1] 0.553 | SHP2 N-SH2 domain L43F 0.455 | SHP2 N-SH2 domain T42A 0.523 | SHP2 N-SH2 domain T52S 0.51 | [2] 0.435

B18: NBEAL2_Y1835_R1839C (peptide)
chain: SSAETYSRMCL
inactive: SHP2 C-SH2 domain E139D 0.727 | [1] 0.741 | SHP2 N-SH2 domain L43F 0.716 | SHP2 N-SH2 domain T42A 0.667 | SHP2 N-SH2 domain T52S 0.676 | [2] 0.906

B19: NBEAL2_Y2748 (peptide)
chain: SGETEYNPTEA
inactive: SHP2 C-SH2 domain E139D 0.483 | [1] 0.467 | SHP2 N-SH2 domain L43F 0.446 | SHP2 N-SH2 domain T42A 0.418 | SHP2 N-SH2 domain T52S 0.547 | [2] 0.481
